From PubChem BioAssay AID686978 (National Center for Advancing Translational Sciences (NCATS), 2013)
The campaign covered roughly 420,000 compounds. About 64,000 (15%) were called active. This list was built around the results that the source calls inconclusive (neither active nor inactive); the mix of calls is not that of the screen. The call rests on the fitted dose curve; in most records, active means well fitted inhibition curve with a large enough effect; inconclusive means small, poorly fitted or top-dose-only effect; inactive means flat fitted curve, though single readings scatter. Potencies of inconclusive entries are left out as doubtful fits.

assay: qHTS for Inhibitors of human tyrosyl-DNA phosphodiesterase 1 (TDP1): qHTS in cells in absence of CPT; conditions: DT40 Tdp1-/- hTDP1 cells, no CPT, ATP luminescence, 48 h; series mostly up to 46.2 µM; further: nearly all actives have a fitted effect of over 55% in size
How it was run: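 Growth of hTDP1-complemented DT40 Tdp1-knockout cells is measured by ATP luminescence after at least 48 hr compound exposure at 37 °C, with DMSO substituting for the 20 nM CPT used in the parallel screen.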
Potency means the concentration at half of the fitted maximal effect; tags describe the fitted curve by direction and shape.

SMILES | Potency
COc1cccc(N/C=C/C(=O)c2ccc(Br)cc2)c1 | inconclusive [inhibitor, partial curve]
C/C=C/c1ccc(OCCOc2ccc(C=O)cc2OC)c(OC)c1 | inconclusive [inhibitor, single point]
COc1ccc(Cl)cc1NC(=O)C1CCCN(S(C)(=O)=O)C1 (stereo not given) | inactive
COc1ccc(Cl)cc1S(=O)(=O)N1CCN(CC(=O)Nc2ccccc2C(F)(F)F)CC1 | inconclusive [inhibitor, partial curve]
COc1cc(OC)cc(-c2cc(N)n(S(=O)(=O)c3cccc4nsnc34)n2)c1 | inconclusive [inhibitor, single point]
CCSc1nc2c([nH]c3ccccc32)c(=O)n1-c1cccc(OC)c1 | inconclusive [inhibitor, single point]
COc1cccc(NC(=O)CN(C)C(=O)CN2C(=O)NC(C)(c3ccc(C)cc3)C2=O)c1 (stereo not given) | inconclusive [inhibitor, partial curve]
CCn1c(C)c(CS(=O)(=O)c2ccccc2)[nH]c1=O | active: 2.91 µM
Cc1ccc(C)c(NC(=O)CSc2nnc(-c3ccccc3)o2)c1 | inactive
NC(=O)C1CCN(c2ccc(C(F)(F)F)cn2)CC1 | inactive
COC(=O)[C@@]1(Sc2ccc(C)cc2)CC(=O)N[C@@H]1c1ccccc1 | inactive
COc1cccc(NC(=O)Cn2c(=O)ccc3cc(S(=O)(=O)N4CCC(C)CC4)ccc32)c1 | active: 16.4 µM
COCCNCc1nc2sc(C)c(-c3ccccc3)c2c(=O)[nH]1 | inconclusive [inhibitor, single point]
COc1ccc(-c2cc(-c3c(O)c(OC)c4occc4c3OC)[nH]n2)cc1OC | active: 20.6 µM
c1ccc(-c2noc(-c3ccco3)n2)nc1 | inconclusive [inhibitor, single point]
CCOC(=O)c1c(C)c(C(=O)NCc2ccco2)c(C)n1Cc1ccccc1 | inconclusive [inhibitor, single point]
Cn1nc(C(=O)NNC(=O)c2cccc(Cl)c2)ccc1=O | inactive
C/C(=N\Nc1nc(C)cc(-c2ccccc2)n1)c1ccccc1 | inconclusive [inhibitor, single point]
COc1ccc(NC(=O)c2cc3nc(-c4ccccc4)cc(C)n3n2)cc1OC | inconclusive [inhibitor, single point]
COc1ccc(-c2nc3ccccc3n2Cc2ccc(C)cc2)cc1 | inconclusive [inhibitor, single point]
